The campaign covered roughly 45,000 compounds. About 65 (0.1%) were called active. Calls come from the whole dose curve; as a rule, active = well fitted activation curve with a large enough effect; inconclusive = small, poorly fitted or top-dose-only effect; inactive = no such curve, though single readings can be large or run the other way. The list shows a part of the results.

Sequence of UniProt P54803 (P54803 whole entry, looked up): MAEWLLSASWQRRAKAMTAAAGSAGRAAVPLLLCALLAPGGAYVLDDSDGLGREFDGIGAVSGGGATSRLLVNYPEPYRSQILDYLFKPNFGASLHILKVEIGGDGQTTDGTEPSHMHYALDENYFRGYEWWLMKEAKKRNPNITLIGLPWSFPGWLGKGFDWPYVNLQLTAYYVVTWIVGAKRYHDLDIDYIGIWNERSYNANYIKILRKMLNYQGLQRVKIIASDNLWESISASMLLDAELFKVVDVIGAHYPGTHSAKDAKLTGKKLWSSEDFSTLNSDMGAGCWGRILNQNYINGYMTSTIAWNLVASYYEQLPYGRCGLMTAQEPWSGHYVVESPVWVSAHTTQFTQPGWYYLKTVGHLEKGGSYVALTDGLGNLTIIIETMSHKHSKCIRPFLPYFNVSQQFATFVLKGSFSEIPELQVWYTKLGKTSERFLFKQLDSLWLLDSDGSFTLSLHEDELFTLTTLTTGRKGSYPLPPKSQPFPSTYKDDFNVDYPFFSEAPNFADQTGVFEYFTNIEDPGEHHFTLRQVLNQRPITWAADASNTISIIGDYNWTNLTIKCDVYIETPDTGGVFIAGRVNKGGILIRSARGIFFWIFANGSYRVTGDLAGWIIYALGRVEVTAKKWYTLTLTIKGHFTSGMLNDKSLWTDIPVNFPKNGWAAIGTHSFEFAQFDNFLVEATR

The target of the experiment is Galactocerebrosidase (Homo sapiens) (UniProt P54803). In words: A Novel Cell-Based Assay to Identify Small Molecules for B -Galactocerebrosidase. Note: 0% is about no effect; nearly all actives have a fitted effect of over 65% in size. As to conditions: 145M-Twi-hGALC-G270D cells (Twitcher mouse brain line with human GALC G270D), HMU-beta-Gal fluorescence, 48 h; series mostly up to 57.5 µM; activation: at the top concentration. In short, it runs like this:
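Fluorescence readout: HMU-β-gal cleavage by mutant GALC (0.1 mM final, citrate/phosphate pH 5.2 with 1 mg/mL taurocholate), stopped with carbonate/bicarbonate plus Triton X-100. Cells: murine Twitcher 145M-Twi expressing human G270D GALC; qHTS for activators.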
In the case of `COc1cccc(-c2nn(C)c3sc(C(=O)N4CCN(c5cccc(C(F)(F)F)c5)CC4)cc23)c1`, the “activation” value is inactive: -4.27%.

Regarding `Cc1cn2c(=O)cc(COC(=O)COc3ccc(F)cc3)nc2s1`, the “activation” value is inactive: -1.51%.

In the case of `COC1(C(F)(F)F)NC(=O)N(c2ccc(F)cc2)C1=O` (configuration not stated), the “activation” value is inactive: -13.7%.

Turning to `CSc1ncc2c(n1)-c1ccccc1N(Cc1ccccc1C)S2(=O)=O`, the “activation” value is inactive: -4.21%.

Turning to `COc1ccc(-n2c(=O)c3c(c4cc(OC)ccc4n3C)n(Cc3c(F)cccc3Cl)c2=O)cc1`, the “activation” value is inactive: -4.52%.

For the compound `Cc1cccc(-n2c3nc(=O)n(C)c(=O)c-3cc3c(C)nn(-c4ccccc4)c32)c1C`, the “activation” value was inactive: -11.2%.

For `COc1cccc(CCNC(=O)c2cnc3sc(N4CCCC4)nn3c2=O)c1`, the “activation” value was inactive: -6.87%.

For `CC1CCc2c(sc3nnn(CC(=O)Nc4ccccc4Cl)c(=O)c23)C1` (configuration not stated), the “activation” value is inactive: -13%.

Consider `Fc1ccc(NCc2nc3ccccc3n2CCOc2ccccc2Cl)cc1`, for which the “activation” value is inactive: -4.7%.

Regarding `CSc1nc2sc3c(c2c(=O)n1-c1ccc(C)cc1)CCCC3`, the “activation” value was inactive: -5.27%.

Regarding `COc1ccc(Cl)cc1NC(=O)N1CCC2(CC1)Oc1ccccc1C(=O)N2Cc1ccc(F)cc1`, the “activation” value was inactive: -9.33%.

As for `COc1ccc(NC(=O)N2CCC(n3c(C)nc4cccnc43)CC2)cc1OC`, the “activation” value was inactive: -10.7%.

As for `CCOC(=O)C1=C(CN(CC)Cc2ccccc2)NC(=O)NC1c1ccc(Cl)cc1` (configuration not stated), the “activation” value is inactive: -7.41%.

Regarding `CCOC(=O)c1cnn(-c2cccc(Cl)c2)c1C1CCN(C(=O)OC(C)(C)C)CC1`, the “activation” value was inactive: -10.9%.

Consider `Cc1ccc(OCCSc2nc3ccc(NC(=O)COc4ccc(C)cc4)cc3s2)cc1`, for which the “activation” value is inactive: -3.32%.

As for `O=C(CCSCc1ccccc1Cl)NCCc1ccccc1`, the “activation” value is inactive: -2.1%.

In the case of `O=C(Cn1ccn(-c2ccc(F)c(F)c2)c(=O)c1=O)NCc1ccccc1`, the “activation” value is inactive: -17.6%.

Consider `CCCn1cc(S(=O)(=O)c2ccc(OCC)cc2)c(=O)c2cc(C)ccc21`, for which the “activation” value was inactive: -18.9%.

As for `CCOc1ccc(-c2c(C)nn3c(C)c(C(=O)NC(C)c4ccccc4)cnc23)cc1OCC` (configuration not stated), the “activation” value was inactive: -15.4%.

With `CCCCC(=O)Nc1cc(-c2cn3cccnc3n2)ccc1C`, the “activation” value is inactive: 8.57%.

Turning to `CCOC(=O)c1cc2c(=O)n3ccccc3nc2n(CC2CCCO2)c1=NC(=O)c1ccc(OCC)cc1` (configuration not stated), the “activation” value is inactive: -11.1%.

Regarding `CN(Cc1ccccc1)C(=O)c1c[nH]c2ccc(S(=O)(=O)Nc3ccccc3F)cc2c1=O`, the “activation” value was inactive: 2.94%.

As to `Cc1cc(C)c(NC(=O)c2cc(S(=O)(=O)N3CCCC3)cn2C)c(C)c1`, the “activation” value is inactive: -7.86%.

As to `COc1cc(Cl)c(S(=O)(=O)N2CCN(c3c(C)cccc3C)CC2)cc1Cl`, the “activation” value was inactive: -13%.

Turning to `Cc1ccc(OCCSc2nc3ccccc3n2CC(=O)N2CCOCC2)cc1C`, the “activation” value is inactive: -19.2%.

For `COc1cc2nc(NCCc3ccc(Cl)cc3)n3nc(-c4ccccc4)nc3c2cc1OC`, the “activation” value was inactive: 6.53%.

Consider `COc1ccc(N2CCN(CCCNC(=O)c3sc4ncccc4c3-n3cccc3)CC2)cc1`, for which the “activation” value was inactive: -13.3%.

Source of the values: PubChem BioAssay AID1159614 (National Center for Advancing Translational Sciences (NCATS), 2016).
